Columns and labels:
[1] = Toxicity of AgA dosing in mice (dose-toxicity experiment); type: in vivo
[2] = system: breast cancer cell line SUM1315 and Tiam1-deficient fibroblast mixed cell xenograft; test: Direct treatment of mixed cell tumor-fibroblast xenograft-bearing mice; details: for body weight of xenograft-bearing mice: FIG. 10A (AgA), FIG. 12A (AgE); for primary tumorigenesis: at the doses used; for lung metastasis in the mixed cell xenograft model: at tolerable doses; for mice with 0 lung metastases: FIG. 13
[3] = system: SUM1315 breast cancer cells; test: Tumorsphere assay of post-co-culture SUM1315 cells; type: cell-based, human
Protocol: Tumorsphere Assays (FIG. 6). The SUM1315 breast cancer cells isolated from 3D co-cultures with indicated mammary fibroblasts and indicated concentrations of AgA or AgE were trypsinized and cell clumps were broken up by gentle pipetting several times. After low-speed centrifugation (1200 rpm), cell pellets were re-suspended in corresponding culture medium, and passed through a 40-μm filter to obtain single cell suspensions. Five thousand cells in 4 mL culture medium were plated per well in ultra-low attachment 6-well plates. Tumorspheres were quantitated within 10 to 14 days in culture and sphere images were obtained on an Eclipse TS100 inverted microscope.

[4] = system: SUM1315 breast cancer cells; test: Flow cytometry for CD44+/CD24-/ESA+ populations in post-co-culture SUM1315 cells; type: cell-based, human
Protocol: Flow Cytometry Assays (FIG. 7). Populations of SUM1315 breast cancer cells were quantified by flow cytometry for expression of indicated cell surface markers using fluorophore-conjugated antibodies after isolation from 3D co-cultures with indicated fibroblasts. Aliquots of 0.5×10^6 cells in 100 μL of fluorescence-activated cell sorting buffer (phosphate-buffered saline with 2% bovine serum albumin) were stained with epithelial cell adhesion molecule epithelial specific antigen (ESA) fluorescein isothiocyanate (FITC) [clone VU-ID9, 1:10]. […] At the end of incubation, 900[…]μL of fluorescence-activated cell sorting buffer was added to the cell/antibody mixture, and cells were then analyzed using an advanced digital processing analyzer. To set background gating, other cell aliquots were stained with isotype control antibodies conjugated with corresponding fluorophore (APC mouse immunoglobulin G (IgG) subclass 2b kappa (κ); PE mouse IgG2a κ; FITC mouse IgG) so that the nonspecific CD44^+/CD24^−/ESA^+ staining represented less than 0.5% of the cell population. Cells were first gated using APC and PE to identify the CD44^+/CD24^− population, followed by secondary gating on FITC to identify the CD44^+/CD24^−/ESA^+ cells.

[5] = system: SUM 1315, SUM159, MCF7, BT474, SKBR3, MCF10A; test: 3D co-culture invasiveness across breast cancer cell line sub-types; type: cell-based, human; details: each cell line; SUM1315 and BT474 most sensitive, MCF7 and MCF10A least sensitive; FIG. 14
[6] = 1.25, 0.625 and 0.25 mg/kg in DMSO, 5x/week IP, FIG. 9

Compound	induced toxicity in the mice, time from treatment initiation ([1]; 2.5 mg/kg, serial-treated mice bearing breast cancer xenografts) [weeks]	body weight [1, 6]	physical signs of toxicity (fur ruffling, hunching, decreased movement) [1, 6]	body weight of xenograft-bearing mice [2]	primary tumorigenesis [2]	lung metastasis in the mixed cell xenograft model [2]	final tumor weights at the implantation site at necropsy ([2]; versus DMSO vehicle cohort, FIG. 10B, no effect on primary tumorigenesis)	increased numbers of tumorspheres induced by Tiam1-deficient fibroblasts ([3]; 75-nM concentration, FIG. 6 column 6)	increased numbers of cancer stem cells (CD44+/CD24-/ESA+) induced by Tiam1-deficient fibroblasts ([4]; 75-nM concentration, FIG. 7 column 6)	increased invasiveness from co-culture with Tiam-deficient fibroblasts [5]	mice with 0 lung metastases ([2]; AgE 0.625 mg/kg)	mice with 0 lung metastases ([2]; AgE 1.25 mg/kg)	growth kinetics of tumor growth at the implantation site ([2]; versus DMSO vehicle cohort, FIG. 12B, no effect on primary tumorigenesis)	numbers of tumorspheres induced by Tiam1-deficient fibroblasts ([3]; 25-nM concentration, FIG. 6 column 7)	tumorsphere numbers ([3]; 50-nM concentration, FIG. 6 column 8)	numbers of cancer stem cells (CD44+/CD24-/ESA+) ([4]; 25-nM concentration, FIG. 7 column 7)	cancer stem cell (CD44+/CD24-/ESA+) numbers ([4]; 50-nM concentration, FIG. 7 column 8)
CN1C(=O)N[C@H]2[C@@H]3NC(=O)c4ccc(Br)n4[C@@H]3C[C@]21O [AgA (1), (−)-agelastatin A]	≤ 2	gained weight as expected	none exhibited physical signs of toxicity	gained weight as expected	do not significantly impair primary tumorigenesis	effective in suppressing/preventing lung metastasis	the same in all cohorts	completely blocked	completely blocked	blocks the increased invasiveness	–	–	–	–	–	–	–
CO[C@@]12C[C@@H]3[C@@H](NC(=O)c4ccc(Br)n43)[C@@H]1NC(=O)N2C [AgE (5), (−)-agelastatin E]	–	–	–	gained weight as expected	do not significantly impair primary tumorigenesis	effective in suppressing/preventing lung metastasis	–	–	–	blocks the increased invasiveness	about 80%	all mice had 0 metastases	the same in all cohorts	partial effect	below baseline	partial effect	below baseline

From patent US11932650B2, “Potent agelastatin derivatives as modulators for cancer invasion and metastasis” (Massachusetts Institute of Technology, priority 2017, dated 2024)
